The other results are listed elsewhere or left out.

In this assay the target is T1, MBP-FoxP1dN (Mus musculus, UniProt P58462 326-579).
T1 sequence: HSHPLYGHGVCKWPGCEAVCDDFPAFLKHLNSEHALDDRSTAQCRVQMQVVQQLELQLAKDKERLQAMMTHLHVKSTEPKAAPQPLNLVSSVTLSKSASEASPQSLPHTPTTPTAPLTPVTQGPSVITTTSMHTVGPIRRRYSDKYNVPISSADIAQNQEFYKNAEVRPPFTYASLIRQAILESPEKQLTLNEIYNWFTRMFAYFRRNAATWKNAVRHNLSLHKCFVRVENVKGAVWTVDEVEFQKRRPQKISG
The assay can be described thus: PD-seq (MBP pull-down with sequencing); 20 mM Tris-HCl pH 7.5, 100 mM NaCl, 1.5 mM MgCl2, 0.4 uM protein, 0.1 uM dsDNA library, 30 min, room temperature, amylose pull-down; high values mean tight binding. Conditions: protein: recombinant; tags: His6-MBP; chain copies: 2; dsDNA, one strand shown. Put shortly: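 A degenerate double-stranded DNA library, filled in with Klenow, was added at 0.1 µM to 0.4 µM His6-MBP-tagged mouse FoxP3 or FoxP1 fragment lacking the N-terminus, expressed in E. coli. Incubation lasted 30 min at room temperature in Tris pH 7.5 buffer with NaCl and MgCl2, after which complexes were collected on amylose resin, washed three times, digested with proteinase K to free the DNA, barcoded by PCR and sequenced by Illumina. Binding is the pooled-replicate reads-per-million enrichment of pull-down over input.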
On to “GATGATTGTTCTCCCAGCTGATGAATTTTGCAGATCGAGTAAACAAATTTTCCTAATCTTTCTGTTCAAGCGCCATCTAC”, for which the binding signal is 0.889 RPM ratio (pull-down/input).
Next, “GATGATTGTTCTCCCAGCTGATGAATTAGGCCTATCGAGTAAACAAATTTTCCTAATCTTTCTGTTCAAGCGCCATCTAC”: 0.898 RPM ratio (pull-down/input); “GATGATTGTTCTCCCAGCTGATGAATTCTCCACGTCGAGTAAACAAATTTTCCTAATCTTTCTGTTCAAGCGCCATCTAC”: 0.893 RPM ratio (pull-down/input).
Next, “GATGATTGTTCTCCCAGCTGATGAATTACCCCAGTCGAGTAAACAAATTTTCCTAATCTTTCTGTTCAAGCGCCATCTAC”: 0.944 RPM ratio (pull-down/input); “GATGATTGTTCTCCCAGCTGATGAATTGAACACGTCGAGTAAACAAATTTTCCTAATCTTTCTGTTCAAGCGCCATCTAC”: 0.926 RPM ratio (pull-down/input).
Consider “GATGATTGTTCTCCCAGCTGATGAATTTGAAATTTCGAGTAAACAAATTTTCCTAATCTTTCTGTTCAAGCGCCATCTAC”, for which the binding signal is 0.86 RPM ratio (pull-down/input).
The value for “GATGATTGTTCTCCCAGCTGATGAATTGTTTTACTCGAGTAAACAAATTTTCCTAATCTTTCTGTTCAAGCGCCATCTAC” was 1.42 RPM ratio (pull-down/input); that for “GATGATTGTTCTCCCAGCTGATGAATTAACTCGGTCGAGTAAACAAATTTTCCTAATCTTTCTGTTCAAGCGCCATCTAC” was 0.818 RPM ratio (pull-down/input); that for “GATGATTGTTCTCCCAGCTGATGAATTCGCTAACTCGAGTAAACAAATTTTCCTAATCTTTCTGTTCAAGCGCCATCTAC” was 0.873 RPM ratio (pull-down/input).
The value for “GATGATTGTTCTCCCAGCTGATGAATTTATACTATCGAGTAAACAAATTTTCCTAATCTTTCTGTTCAAGCGCCATCTAC” was 1.32 RPM ratio (pull-down/input); that for “GATGATTGTTCTCCCAGCTGATGAATTTTAGAGGTCGAGTAAACAAATTTTCCTAATCTTTCTGTTCAAGCGCCATCTAC” was 0.754 RPM ratio (pull-down/input); that for “GATGATTGTTCTCCCAGCTGATGAATTATCTACGTCGAGTAAACAAATTTTCCTAATCTTTCTGTTCAAGCGCCATCTAC” was 0.996 RPM ratio (pull-down/input).
Next, “GATGATTGTTCTCCCAGCTGATGAATTGATCGACTCGAGTAAACAAATTTTCCTAATCTTTCTGTTCAAGCGCCATCTAC”: 0.984 RPM ratio (pull-down/input).
As for “GATGATTGTTCTCCCAGCTGATGAATTCGAATGTTCGAGTAAACAAATTTTCCTAATCTTTCTGTTCAAGCGCCATCTAC”, the binding signal is 0.954 RPM ratio (pull-down/input).
Take “GATGATTGTTCTCCCAGCTGATGAATTTGGCAGCTCGAGTAAACAAATTTTCCTAATCTTTCTGTTCAAGCGCCATCTAC”: the binding signal was 0.875 RPM ratio (pull-down/input).
Next, “GATGATTGTTCTCCCAGCTGATGAATTTTCGGCGTCGAGTAAACAAATTTTCCTAATCTTTCTGTTCAAGCGCCATCTAC”: 0.883 RPM ratio (pull-down/input); “GATGATTGTTCTCCCAGCTGATGAATTTCGCCCATCGAGTAAACAAATTTTCCTAATCTTTCTGTTCAAGCGCCATCTAC”: 0.827 RPM ratio (pull-down/input); “GATGATTGTTCTCCCAGCTGATGAATTATATTACTCGAGTAAACAAATTTTCCTAATCTTTCTGTTCAAGCGCCATCTAC”: 1.08 RPM ratio (pull-down/input).
The value for “GATGATTGTTCTCCCAGCTGATGAATTCTCATATTCGAGTAAACAAATTTTCCTAATCTTTCTGTTCAAGCGCCATCTAC” was 0.94 RPM ratio (pull-down/input).
The value for “GATGATTGTTCTCCCAGCTGATGAATTGTGTACGTCGAGTAAACAAATTTTCCTAATCTTTCTGTTCAAGCGCCATCTAC” was 1.71 RPM ratio (pull-down/input); that for “GATGATTGTTCTCCCAGCTGATGAATTTTCGCTATCGAGTAAACAAATTTTCCTAATCTTTCTGTTCAAGCGCCATCTAC” was 1.06 RPM ratio (pull-down/input); that for “GATGATTGTTCTCCCAGCTGATGAATTTATATTATCGAGTAAACAAATTTTCCTAATCTTTCTGTTCAAGCGCCATCTAC” was 2.04 RPM ratio (pull-down/input).
Regarding “GATGATTGTTCTCCCAGCTGATGAATTGGTGAGATCGAGTAAACAAATTTTCCTAATCTTTCTGTTCAAGCGCCATCTAC”, the binding signal is 0.906 RPM ratio (pull-down/input).
Next, “GATGATTGTTCTCCCAGCTGATGAATTATTGAGATCGAGTAAACAAATTTTCCTAATCTTTCTGTTCAAGCGCCATCTAC”: 1.11 RPM ratio (pull-down/input); “GATGATTGTTCTCCCAGCTGATGAATTTATTGCGTCGAGTAAACAAATTTTCCTAATCTTTCTGTTCAAGCGCCATCTAC”: 1.31 RPM ratio (pull-down/input); “GATGATTGTTCTCCCAGCTGATGAATTAGTTTAATCGAGTAAACAAATTTTCCTAATCTTTCTGTTCAAGCGCCATCTAC”: 1.02 RPM ratio (pull-down/input).
Next, “GATGATTGTTCTCCCAGCTGATGAATTGAACTTTTCGAGTAAACAAATTTTCCTAATCTTTCTGTTCAAGCGCCATCTAC”: 0.887 RPM ratio (pull-down/input); “GATGATTGTTCTCCCAGCTGATGAATTTGGCAGGTCGAGTAAACAAATTTTCCTAATCTTTCTGTTCAAGCGCCATCTAC”: 0.753 RPM ratio (pull-down/input).
The value for “GATGATTGTTCTCCCAGCTGATGAATTCCAACACTCGAGTAAACAAATTTTCCTAATCTTTCTGTTCAAGCGCCATCTAC” was 0.916 RPM ratio (pull-down/input); that for “GATGATTGTTCTCCCAGCTGATGAATTGGGATTATCGAGTAAACAAATTTTCCTAATCTTTCTGTTCAAGCGCCATCTAC” was 0.952 RPM ratio (pull-down/input); that for “GATGATTGTTCTCCCAGCTGATGAATTTGGAGACTCGAGTAAACAAATTTTCCTAATCTTTCTGTTCAAGCGCCATCTAC” was 0.799 RPM ratio (pull-down/input).

Values taken from paper PMC12820563, “FoxP3 forms a head-to-head dimer in vivo and stabilizes its multimerization on adjacent microsatellites”.
